Where “and” joins values, the source holds several entries; their conditions need not be identical. Equal values may be shown once.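 Interpolation was linear, between the two tested concentrations surrounding the appropriate level; five concentrations were tested over 48 hours in 96-well plates. GI50 = concentration required for 50% inhibition of growth. TGI: total growth inhibition.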
test system: NCI-H322M lung; assay: NCI anticancer screen, dose series, 48 h

SMILES | GI50 | TGI
CCN(CC)CCN1C(=O)c2cccc3c(-c4ccc5c(c4)ncn5C4CCCCC4)ccc(c23)C1=O | 1.94 µM | 5.43 µM
Cc1c2c(c(C)c3c[n+](C)ccc13)Oc1ccccc1O2 |  | > 69.6 µM
CC1=C(C)C(=O)OC(C(C)(O)C2(O)CCC3(O)C4CC(Cl)C5(O)C(O)C=CC(=O)C5(C)C4CCC32C)C1 (stereo not given) |  | > 100 µM
O=C(c1cc(=O)c2ccc(O)cc2o1)c1ccc(Cl)cc1Cl |  | > 100 µM
Oc1nc(NCCc2ccccc2)sc1/C=C1\C=Nc2ncccc21 | 2.09 µM and 2.9 µM | 13.4 µM and 77.4 µM
CCOP(=O)(CCP(=O)(OCC)OCC)OCC.C[CH2][Sn]([Cl])([Cl])[CH2]C | > 91.2 µM | > 100 µM
Cc1ccnc(NS(=O)(=O)c2ccc(NC(=O)c3ccc4nc5ccccc5c(Nc5ccc(S(=O)(=O)Nc6nccc(C)n6)cc5)c4c3)cc2)n1 |  | > 100 µM
O=C(Nc1cccc(Cl)c1)Nc1cccc(Cl)c1 | > 100 µM | > 100 µM
Cc1c2cc[n+](COC(=O)c3ccccc3)cc2c(C)c2c1[nH]c1ccccc12 |  | 1.91 µM
CC1C2Cc3ccc(O)cc3C1(C)CCN2C (stereo not given) |  | > 100 µM
NC(=O)c1cnc2sc3ccccc3n2c1=O |  | > 100 µM
NC(=S)N/N=C(/CC(=O)c1ccc([N+](=O)[O-])cc1)C(=O)Nc1ncc([N+](=O)[O-])s1 |  | > 100 µM
CC/C(=N\Nc1nc2ccccc2n1C)c1ccccn1 | 0.0467 µM | 11.2 µM
O=C(Oc1cccnc1)c1ccccc1Nc1ccnc(C(F)(F)F)c1 | 4.33 µM | 29.1 µM
C/C(=N\NC(=O)CC(=O)Nc1ccc(C)cc1)c1cc2ccccc2oc1=O |  | > 100 µM
CCOC(=O)CC(=O)ON(C)C(=O)Cc1ccccc1 |  | > 100 µM
Cc1c2ccccc2c(C)c2c3c(ccc12)C(=O)C=CC3=O |  | > 100 µM
CCOc1ccccc1NC(=O)C(=O)CC(=O)C1=C(C)Nc2ccccc2S1 |  | > 100 µM
CSC1=N/C(=C\c2cccs2)C(=O)N1CN1CCOCC1 |  | > 100 µM
Nc1[nH]c(=O)nc2sc3c(c12)CCCC3 |  | > 100 µM
C=C1c2nc3ccccc3n2C=C(c2ccc(Cl)cc2)N1c1ccc(OCCN2CCOCC2)cc1 |  | > 100 µM
CCCS(=O)(=O)O |  | > 100 µM
COc1ccc(CN2c3ccccc3Sc3ccccc32)cc1F | 0.623 µM | > 100 µM
N#Cc1ccc(Oc2nccc(-c3c(-c4ccc(F)cc4)ncn3C3CCNCC3)n2)cc1 | > 25 µM | > 25 µM
COC1=C(OC)C(=O)C(/C=C(\C)C(=O)O)=C(C)C1=O | > 100 µM | > 100 µM
CCOC(=O)C(SCCO)C(C(=O)OCC)n1ccc(N)nc1=O (stereo not given) |  | > 100 µM

SMILES | GI50 | TGI
CC1=C(C(=O)Nc2cccc(C(F)(F)F)c2)C(c2ccc(O)cc2)C(C(=O)Nc2cccc(C(F)(F)F)c2)=C(C)N1 |  | 88.8 µM
C/C(=N/O)C1CC=C(S(=O)(=O)c2ccccc2)C1 (stereo not given) |  | > 100 µM
O=C(CSc1nc2ccc(I)cc2c(=O)n1Cc1ccccc1)N/N=C/c1ccccc1 |  | > 100 µM
COc1cc2cc(c1Cl)N(C)C(=O)CC(OC(=O)C(C)C)C1(C)OC1C(C)C1CC(O)(NC(=O)O1)C(OC)/C=C/C=C(C)C2 (stereo not given) |  | 26.1 µM
COC(=O)CCC(NC(=S)N/N=C(\C)c1ccccn1)C(=O)OC (stereo not given) |  | > 100 µM
COc1cc(CNC(=O)/C=C/C=C/c2ccc3c(c2)OCO3)ccc1OCc1cn(-c2ccc(Cl)c(Cl)c2)nn1 | 2.94 µM | 11.7 µM
CCc1cccc(C(C)CC)c1N=C(NC(=O)c1ccccc1C(=O)NC(=Nc1c(CC)cccc1C(C)CC)SC)SC (stereo not given) |  | > 100 µM
CC(C)(C)OC(=O)N1C(C2=COc3ccccc3O2)=COc2ccccc21 |  | > 100 µM
Cc1ccc2nc3c(Cl)cc(=O)cc-3sc2c1 |  | > 100 µM
O=[N+]([O-])c1cc2n[nH]nc2c2nonc12 |  | > 100 µM
C=C1C(=O)OC2/C=C(\C)CC/C=C(/C)CC(OC(=O)/C(=C/CO)CO)C12 (stereo not given) |  | > 100 µM
COC1/C=C\C=C(/C)C(=O)NC2=CC(=O)C=C(C2=O)C(OC)C(C)CC(OC)C(OC)C(C)/C=C(/C)C1OC(N)=O (stereo not given) |  | 29.8 µM
CC(=O)OC1C=CC2CCN3C(=O)c4cc5c(cc4[C@H]1C23)OCO5 (stereo not given in full) |  | > 100 µM
CC(C)c1cc(C(C)C)c(S(=O)(=O)NN)c(C(C)C)c1 |  | > 100 µM
CCCCc1ccc(Nc2nc3c(ncn3C3OC(COC(C)=O)C(OC(C)=O)C3OC(C)=O)c(=O)[nH]2)cc1 (stereo not given) |  | 40 µM
CC(=O)Nc1ccc2nncnc2c1 |  | > 100 µM
CCOC(=O)C(Cc1ccc2c(c1)CCC2)(Cc1ccc2c(c1)CCC2)C(=O)OCC |  | > 100 µM
O=C(CC(=O)c1ccncc1)c1ccccc1 |  | > 100 µM
COc1ccc(/C=C/C(=O)c2sc(N)nc2C)cc1 |  | > 100 µM
Cc1ccc2nc3c(C(=O)NCCN(C)C)cccc3cc2c1 |  | 6.65 µM
C1CNCCN2CCCNCCN(C1)CC2 |  | > 100 µM
O=S(=O)(NCCNc1nccc(-c2c(-c3cccc(O)c3)nc3sccn23)n1)c1ccc(F)cc1 | 12.7 µM | 40.6 µM
O=C1NC(=NCC(CO)c2ccccc2)S/C1=C\c1ccc2ncccc2c1 (stereo not given) | 17.1 µM | > 25 µM
O=C1C2=C(C(=O)c3c(O)ccc(O)c31)N(c1ccc(N3CCOCC3)nc1)Cc1ccccc1O2 | 2.02 µM | 5.14 µM
COC(=O)/C(C#N)=C\N1CCN(C(=O)c2ccco2)C1=S | 14 µM | 36.3 µM
O=C(CCCn1c2c(sc3ncccc32)c(=O)n2nnc(-c3ccccc3)c12)NCCc1cnc[nH]1 | 14.6 µM | 36.3 µM

SMILES | GI50 | TGI
O=C1CCc2c3c(c4c([nH]c5ccccc54)c2CC1)C(=O)NC3=O |  | 59.5 µM
CCCOc1ccc(/C(Cl)=C(\C=O)c2ccc(OC)c(OC)c2)cc1OCCC |  | > 100 µM
Nc1nc(-c2ccccc2)c(-c2ccccc2)c(-c2nc(N)nc(-c3ccccc3)c2-c2ccccc2)n1 |  | > 100 µM
COc1ccc(/C=C2/C(=O)N(C(=O)c3ccccc3O)N=C2C)cc1OC |  | > 100 µM
CS(C)(=O)=N/C=C\C(=O)C(Cl)(Cl)Cl |  | > 100 µM
CC(C)(O)[C@@H]1CCC(C)([C@H]2[C@@H](O)CC3(C)C4CC(OC5OC(CO)C(O)C(O)C5O)C5C(C)(C)[C@@H](OC6OCC(O)C(O)C6O)CC[C@@]56C[C@@]46CC[C@]23C)O1 (stereo not given in full) |  | > 100 µM
O=C(O)CC(NC(=O)C(F)(F)F)C(=O)NC1Cc2ccccc2OC1=O (stereo not given) |  | > 100 µM
CCC(=O)C1=C(OC(C)=O)C2Cc3c(n(C)c4ccccc34)C(C1)N2C (stereo not given) |  | > 100 µM
CCOc1ccc(Cc2nccc3cc(OCC)c(OCC)cc23)cc1OCC | 8.36 µM | 32.5 µM
CN(CCCNC(=O)c1cn(C)c2c1ccc1cc(Cl)ccc12)CCCNC(=O)c1cn(C)c2c1ccc1cc(Cl)ccc12 |  | 5.53 µM
COc1cccc(Nc2nc(NNC(=O)Cc3ccccc3)nc(NNC(=O)c3ccncc3)n2)c1 | > 100 µM | > 100 µM
COC(=O)C12CCC(C(=O)OC)(Cc3c(c4ccccc4n3S(=O)(=O)c3ccccc3)C1)C2=O (stereo not given) |  | > 100 µM
O=C1NC(=NCc2cccs2)SC1Cc1ccc2ncccc2c1 (stereo not given) | > 25 µM | > 25 µM
O=C1/C(=C/c2ccc(O)cc2)NC(=S)N1CN1CCCCC1 |  | > 100 µM
COc1cc2c(cc1OC)C(CCc1ccc(Cl)cc1)N(C)CC2 (stereo not given) | 37.1 µM | > 100 µM
CCSC1(SCC)CCN(C=NC(C)(C)C)C1 |  | > 100 µM
Nc1nnc2nc(CC(=O)/C=C/c3ccccc3)c(=O)[nH]n12 |  | > 100 µM
NCCCNCCSSCc1ccccc1CSSCCNCCCN |  | > 100 µM
O=C1C(NS(=O)(=O)c2ccccc2)=C(n2cnc3ccccc32)C(=O)c2ccccc21 |  | > 100 µM
Nc1ccc2c(c1)C(=O)c1ccc(F)cc1-2 |  | > 100 µM
Nn1c(CNc2ccc(-c3nnc(Nc4ccc(Cl)cc4)n3N)cc2)nnc1Nc1ccc(Cl)cc1 |  | > 100 µM
CC1=C(N2CC2)C(=O)C(CO)=C(N2CC2)C1=O | 0.159 µM | 0.735 µM and 0.857 µM
COc1ccc(/C=C2\N=C(c3ccccc3)OC2=O)c(OCc2ccccc2)c1 |  | 89.6 µM
CN(C)c1cccc(-c2cc(=O)c3ccccc3[nH]2)c1 |  | > 100 µM
O=C(CCc1nnc2s/c(=C\c3ccccc3)c(=O)n12)Nc1cc(Cl)ccc1Cl |  | > 100 µM
CCOC(=O)C1=C(Nc2ccccc2)OC/C1=N\NC(=O)Cc1ccccc1 |  | > 50 µM

SMILES | GI50 | TGI
CCN1CCN(CCOc2ccc(CNc3ccc4nc(CCC5CCCCC5)[nH]c4c3)cc2)CC1 | 2.87 µM | 10.2 µM
CN(c1c(Cl)cccc1Cl)S(=O)(=O)c1ccccc1[N+](=O)[O-] |  | > 100 µM
N/C(=N\O)c1ncc(-c2ccc(C(F)(F)F)cc2)c(NC2CCCCCC2)n1 | 3.21 µM | 12.4 µM
C=CCn1c2ccccc2c2c(C)c3cnccc3c(C)c21 |  | > 125 µM
COC1/C=C/C(C)C(OC)CC(O)/C=C/C(C)C(C(C)C(OC)C(C)CCC(=O)C(C)C(C/C=C/N(C)C=O)OC)OC(=O)/C=C/C=C(\C)CC(OC)C(OC)C2=CC(=O)O[C@@H](C(C)C(OC)C1)[C@H]2O (stereo not given in full) |  | 0.278 µM
CCN(CC)CC(O)c1ccc2ccc3ccccc3c2c1 (stereo not given) |  | 29.1 µM
COc1c(OC(C)=O)cc2c(OC(C)=O)c1CC(C)CC(OC)C(O)C(C)/C=C(\C)C(OC(N)=O)C(OC)/C=C\C=C(/C)C(=O)N2 (stereo not given) |  | > 100 µM
CN(C)CC(C(=O)c1ccccc1)c1ccccc1 (stereo not given) | 15.8 µM | 34 µM
NS(=O)(=O)c1nnc(NC(=O)CCC(=O)O)s1 |  | > 100 µM
Cn1c(-c2ccccc2)cc(-c2ccc3c(c2)OCO3)c1-c1cccs1 |  | > 100 µM
CCN(CC)CCNc1ccc([N+](=O)[O-])c2nc3ccccc3c(N)c12 |  | 1.74 µM
Cc1ccc(SSCCCS(=O)O)cc1 |  | > 100 µM
COc1ccc(C2CCc3nc4nc(N)nc(N)c4cc3C2)cc1 (stereo not given) |  | > 100 µM
CC1=CC(c2ccccc2)OP1(=O)c1ccccc1 (stereo not given) |  | > 100 µM
Clc1ccccc1C(n1cc(Br)cn1)n1cc(Br)cn1 |  | 19 µM
O=C(c1cc2ccccc2[nH]1)C(O)(c1cc2ccccc2[nH]1)c1cc2ccccc2[nH]1 |  | > 246 µM
C/C(CC(O)(C(F)(F)F)C(F)(F)F)=N\N |  | > 10 µM
CCCCCCCCCCCCCCCCOC(=O)C(C(=O)OCCCCCCCCCCCCCCCC)[N+](C)(C)CCOC(C)=O |  | 29 µM
CN1CCc2c(sc3nc(Nc4ccccc4)n(N)c(=O)c23)C1 |  | > 100 µM
CC(C)OP(=O)(OC(C)C)C(C(F)(F)F)C(F)(F)F |  | > 100 µM
OC1CN(OC/C=C/c2ccccc2)CC(O)C1O (stereo not given) |  | > 100 µM
COc1cc(/C=C/C(=O)C(=Cc2ccc(F)c(F)c2)C(=O)/C=C/c2ccc(O)c(OC)c2)ccc1O | 5.94 µM | 20.7 µM
C[N+](C)(C)CCOP(=O)(O)OP(=O)([O-])OCC1CCC(n2ccc(N)nc2=O)O1 (stereo not given) |  | > 100 µM
